Data on 103 compounds can be found in ChEMBL document CHEMBL4888484, “Replenishing the malaria drug discovery pipeline: Screening and hit evaluation of the MMV Hit Generation Library 1 (HGL1) against asexual blood stage Plasmodium falciparum ,using a nano luciferase reporter read-out” (2022).

Screen size: about 4,800 compounds; about 420 (8.8%) showed an effect of 50% or more. Some of the results follow.

The experiment deals with Plasmodium falciparum. The experiment can be described thus: Confirmatory screen in NF54 nanoGlo assay, in single point, at 2uM, 72h. It counts as functional, Erythrocyte. To be noted: timepoint 72 hour.
Take `CC(C)CC(=O)N=c1nc(S)ss1`: the “% Inhibition” value was -4%.

On to `COc1ccc(C2=NC3(CCN(Cc4ccccc4)CC3)N[C@H](c3cc(Cl)ccc3O)C2)cc1`, for which the “% Inhibition” value came to 24%.

Turning to `CN1C(=O)N(c2cc(Cl)cc(Cl)c2)C(=O)[C@]12CN(c1ccc(C(=O)O)cn1)C[C@H]2c1ccc(C#N)cc1`, the “% Inhibition” value stood at 5%.

As to `Cc1cc(NC(=O)c2ccc[nH]2)ccc1Oc1ccncc1`, the “% Inhibition” value is recorded as -5%.

For the compound `Cc1cc2nc(C)c(=O)n(Cc3ccc(C(=O)N4CCC(Cc5ccccc5)CC4)cc3)c2cc1C`, the “% Inhibition” value is on record as 0%.

Turning to `COc1cccc(C(=O)N2C[C@@H]3C[C@H](NC(=O)c4ccccc4)[C@H]2C3)c1OC`, the “% Inhibition” value is on record as -1%.

With `COc1cccc(Cn2nc3ccc(S(=O)(=O)N4CCCC4)cn3c2=O)c1`, the “% Inhibition” value stood at 2%.

With `O=C1c2ccccc2[C@H]2N1CCN2c1ccccc1`, the “% Inhibition” value stood at 5%.

Consider `O=C(NCC1(Cc2ccccc2)CCC1)N(CCO)C1CC1`, for which the “% Inhibition” value is -7%.

`O=S(=O)(Nc1cccc2cccnc12)c1cccs1`: the “% Inhibition” value is recorded as 60%.

Consider `COc1ccc([C@@H]2NC(=O)c3cc(C(C)C)sc3N2)cc1COc1ccc(F)cc1F`, for which the “% Inhibition” value is 4%.

Consider `Cc1cccc(C(=O)N2CCc3[nH]nc(C(=O)N[C@H]4CCCc5ccccc54)c3C2)c1`, for which the “% Inhibition” value is listed as -8%.

As to `CC(C)c1ocnc1C(=O)N[C@](C)(C#N)CCc1ccccc1`, the “% Inhibition” value amounted to 8%.

On to `COc1ccc(NC(=O)Cn2cnc3nc(N(C)Cc4ccccc4)sc3c2=O)cc1Cl`, for which the “% Inhibition” value was -8%.

Consider `Cc1ccc(CN(CCN2CCCC2)Cc2ccc(C)o2)o1`, for which the “% Inhibition” value amounted to 3%.

In the case of `O=S(=O)(c1c(Cl)cccc1Cl)N1CCC[C@@H]1CN1CCCC1`, the “% Inhibition” value is -1%.

For the compound `COc1ccc(CCNCC(=O)Nc2c3c(nc4ccccc24)N(C)CC3)cc1OC`, the “% Inhibition” value was 3%.

With `CCc1cccc(NC(=O)N2CCC3(CC2)C(=O)N(CC(=O)Nc2ccc(F)cc2)CN3c2ccccc2)c1`, the “% Inhibition” value stood at 43%.

Turning to `CCn1nc(CNC[C@H](C)O)c(-c2ccccc2)n1`, the “% Inhibition” value is given as -11%.

As for `CC1CCCCC1OCCN1CCCC(C2(C)NC(=O)NC2=O)C1` (stereo not drawn), the “% Inhibition” value is recorded as -1%.

In the case of `O=C(NS(=O)(=O)c1ccc2c(c1)OCCCO2)c1cc2c(s1)CCC2`, the “% Inhibition” value worked out at 4%.

As for `CC1CC(C(=O)Nc2[nH]c(=O)ncc2F)CC(C)(C)C1` (stereo not drawn), the “% Inhibition” value is recorded as 92%.

For the compound `CCOc1ccccc1C(=O)Nc1c(-n2cnnc2)nn(C)c1C`, the “% Inhibition” value amounted to 2%.

As to `Cc1nccn1-c1cc(CNC(=O)[C@H]2CCCN(S(=O)(=O)c3cccs3)C2)ccn1`, the “% Inhibition” value was 2%.

Regarding `COCCc1nc(C2(Nc3ccc(Cl)cc3)CCC2)no1`, the “% Inhibition” value was determined as 3%.

Take `CC1CCC(NC(=O)[C@H]2CCS(=O)(=O)C2)CC1` (stereo partly drawn): the “% Inhibition” value is reported as -13%.

`Cc1ncc(CN(CCN(C)C)CC2CCCCC2)s1`: the “% Inhibition” value was -8%.

As to `O=C(NCc1noc(Cc2ccccc2)n1)c1ccno1`, the “% Inhibition” value stood at 2%.

Turning to `OC(CNC1CCCNc2ccccc21)c1ccc(Cl)s1` (stereo not drawn), the “% Inhibition” value is given as 58%.

`Cc1cc(C(=O)NCc2nc3ccccc3s2)c(C)o1`: the “% Inhibition” value is -1%.

For `Cn1c(=O)c2nc(N3CCOCC3)[nH]c2n(-c2ccccc2)c1=O`, the “% Inhibition” value came to 1%.

Consider `CCCNC(=O)c1c(NC(=O)c2ccc3c(c2)c(C)c(C)n3Cc2ccccc2)cnn1C`, for which the “% Inhibition” value was -12%.

For `COc1cc(=O)c(C(=O)N2CCCCCC2)nn1-c1ccc(F)c(F)c1`, the “% Inhibition” value worked out at 3%.

As for `Cc1noc(C)c1CN1C[C@@H]2Oc3cc(F)ccc3C(=O)N(C)[C@@H]2C1`, the “% Inhibition” value was determined as 92%.

For `C[C@H](C(=O)NCC1CCN(Cc2ccccc2F)CC1)C1CCOCC1`, the “% Inhibition” value is on record as -6%.

For the compound `Cc1cc(-c2cncc(CN3CCCCC3)c2)ccc1F`, the “% Inhibition” value is recorded as 7%.

`O=C(NC1CCCC1)c1cc2ccccc2[nH]1`: the “% Inhibition” value is given as -7%.

On to `CN(c1nc2c(cnn2C)c(=O)[nH]1)C1CCCC1c1ccc(C(F)(F)F)cc1` (stereo not drawn), for which the “% Inhibition” value amounted to 6%.

As to `Cc1cccc(C(=O)Nc2c(C#N)c(-c3ccccc3)c(-c3ccccc3)n2Cc2ccccc2)c1`, the “% Inhibition” value is on record as 3%.

For the compound `C[C@@H](CN)N(C)c1ccnc2cc(Br)cnc12`, the “% Inhibition” value is on record as 98%.

For the compound `Cc1nc2cc(F)ccc2cc1C(=O)N1CCN(S(=O)(=O)c2ccc(Br)cc2)CC1`, the “% Inhibition” value was 0%.

As for `CCCN1CCN(CCCNC(=O)c2ccc(Cl)c(-n3c(C)nc4cccnc43)c2)CC1`, the “% Inhibition” value stood at 0%.

For `COc1cccc(NC(=O)Nc2ccc3c(c2)NC(=O)C(C)(C)O3)c1`, the “% Inhibition” value is -1%.

Regarding `O=C(CCc1ccc2cc[nH]c2c1)NCc1cccc(Cl)c1`, the “% Inhibition” value turned out to be 0%.

As for `O=C(Cc1ccc(Cl)cc1Cl)N1CCc2[nH]nc(C(=O)N3CCN(c4ccccc4)CC3)c2C1`, the “% Inhibition” value is given as -1%.

In the case of `N[C@@H](CO)c1cccc(Br)c1`, the “% Inhibition” value is on record as 7%.

Turning to `Cc1ccc(-c2nn[nH]n2)cc1-n1cccn1`, the “% Inhibition” value is listed as -2%.

With `Cn1cc(-c2cc(-c3cnn(C)c3)n(S(=O)(=O)c3ccc(Cl)cc3)n2)cn1`, the “% Inhibition” value is listed as -20%.

As to `O=C(c1cc(-c2ccncc2)on1)N1CCOC2(CCCCCC2)C1`, the “% Inhibition” value is on record as -6%.

For `CCCc1nnc(NC(=O)C(=O)OCC)s1`, the “% Inhibition” value was -6%.

As for `COC(=O)c1cc(Cl)cc(NC(=O)CC2CCNCC2)c1`, the “% Inhibition” value was -6%.

Regarding `FC(F)(F)c1ccc(-c2nc(Cn3ccnn3)co2)cc1`, the “% Inhibition” value is listed as 0%.

On to `Cc1cc(N2CCN(c3ccccn3)CC2)n2cc(-c3ccccc3)nc2n1`, for which the “% Inhibition” value is given as 7%.

Turning to `CC(C)(c1ccc(F)cc1)C1(NC(=O)CCc2nccs2)CC1`, the “% Inhibition” value is -9%.

As for `COc1cccc(-n2c(C)cc(C(=O)N3CCNC(=O)CC3)c2C)c1`, the “% Inhibition” value was -6%.

For the compound `C1CCC(Nc2nc3nonc3nc2N2CCCCC2)CC1`, the “% Inhibition” value is reported as 1%.

In the case of `CC(Oc1ccccc1)C(=O)N1CCNC(=O)C1c1ccc(Br)cc1` (stereo not drawn), the “% Inhibition” value is reported as -2%.

As for `CC1CCCC(C)C12NC(=O)N(CN1CCN(CCOc3ccccc3Cl)CC1)C2=O` (stereo not drawn), the “% Inhibition” value is 1%.

Regarding `CCOC(=O)[C@@H](OC(=O)Nc1cccc(C(F)(F)F)c1)C(F)(F)F`, the “% Inhibition” value was 1%.

Take `O=C1[C@@H]2C[C@@H](CN2C(=O)c2cncnc2)Oc2ccccc2N1Cc1cccnc1`: the “% Inhibition” value stood at 4%.

`Brc1cc(Br)c2nc(-c3ccc(C4CCCCC4)cc3)ccc2c1`: the “% Inhibition” value was 3%.

As for `O=C(NCCc1cccs1)c1nn[nH]c1Nc1ccccc1F`, the “% Inhibition” value is on record as 0%.

Regarding `Cc1nn(C[C@H](C)/C(N)=N/O)cc1Cl`, the “% Inhibition” value is listed as 3%.

Turning to `Cn1ncc(Cl)c1C(=O)N(C1CCCCC1)C1CCCCC1`, the “% Inhibition” value is on record as 1%.

Turning to `O[C@@]1(CN2CCC(COc3ccc4c(c3)CCC4)CC2)CCCNC1`, the “% Inhibition” value is recorded as 52%.

Take `Clc1cc(CNCCc2ccccc2)ccc1OCc1ccccc1`: the “% Inhibition” value is listed as -6%.

Take `CCOC(=O)Nc1nc(C)c(-c2nc3ccccc3c(=O)n2-c2ccc(OC)cc2)s1`: the “% Inhibition” value is reported as -4%.

Consider `O=C(CCc1ccccc1)Nc1ccc(-n2nn[nH]c2=O)cc1`, for which the “% Inhibition” value was -5%.

`CN(Cc1cnn(-c2ccccc2)n1)c1ncnc2[nH]ncc12`: the “% Inhibition” value was 3%.

On to `CCCCC(C)C(=O)N1CCC2CN(C(=O)C(F)(F)F)CC2C1` (stereo not drawn), for which the “% Inhibition” value stood at 3%.

As for `c1ccc(-c2nccc(-c3ccc(-n4cncn4)cc3)n2)nc1`, the “% Inhibition” value was 16%.

As to `Cc1nn(-c2nc3ccccc3[nH]2)c(O)c1Cc1ccccc1`, the “% Inhibition” value amounted to 2%.

For `c1cc(Cn2cnc3c2CCCC3)cs1`, the “% Inhibition” value was -15%.

On to `COc1ccc2ncc(=O)n(CCOc3ccccc3)c2c1`, for which the “% Inhibition” value was found to be 4%.

As to `CCC1(CC)CN(C(=O)c2ccn(C)c(=O)c2)c2ccccc21`, the “% Inhibition” value came out at 2%.

Take `Nc1nc(N2CCN(c3ccc(F)c(Cl)c3)CC2)cc([C@H]2C[C@@H](N)C2)n1`: the “% Inhibition” value was 32%.

Regarding `CCOc1cccc(COC(=O)c2cc(C#N)cn2C)n1`, the “% Inhibition” value is listed as -3%.

For the compound `CC1(C)Cc2nc3ccccc3c(NCc3ccccc3)c2[C@@H](O)C1`, the “% Inhibition” value is 44%.

Regarding `Cc1ccc([C@H](c2c[nH]c3ccccc23)N(C)C(=O)C(C)C)cc1`, the “% Inhibition” value came out at 30%.

`CNc1nc(Nc2ccc3c(c2)OCCO3)nc2ccccc12`: the “% Inhibition” value is on record as 95%.

For `COCCCNC(=O)C1CCN(c2c(C)n(-c3ccccc3)c(=O)n(CC(C)C)c2=O)CC1`, the “% Inhibition” value is listed as -2%.

Turning to `O=C(Nc1cccc(Cl)c1)Nc1cccc(-c2cnc3n2CCC3)c1`, the “% Inhibition” value was determined as 46%.

On to `CC(=O)Nc1ccc(S(=O)(=O)NCc2ccc(C(=O)NC3CCC(C)CC3)cc2)cc1` (stereo not drawn), for which the “% Inhibition” value is -5%.

On to `O=C(NC1CCCOC1)NC1CCCOc2c1ccc1ccccc21` (stereo not drawn), for which the “% Inhibition” value is -3%.

Take `O=C(NC1CCCCC1)c1cc2c(Cl)ccc3c2n1CCO3`: the “% Inhibition” value was -10%.

Regarding `Cc1c2c(=O)n(-c3nc4ccccc4s3)n(Cc3ccccc3)c2cc(=O)n1Cc1ccc2c(c1)OCO2`, the “% Inhibition” value was 17%.

Turning to `COCc1nncn1C1CN(C(=O)Cc2ccc(OC)c(OC)c2)C1`, the “% Inhibition” value was -9%.

On to `COc1ccc(N2CCN(Cc3c(O)nc(O)c(C#N)c3C)CC2)cc1`, for which the “% Inhibition” value was -3%.

With `Cc1c(-c2ccccc2Br)[nH]c2cc3c(cc2c1=O)OCCO3`, the “% Inhibition” value is recorded as -13%.

For `O=C(N[C@@H](N1CCCC1)C(Cl)(Cl)Cl)c1ccc(Cl)cc1`, the “% Inhibition” value is recorded as -13%.

Regarding `Brc1ccc2c(c1)c1cc(Br)cc(Br)c1n2CN1CCOCC1`, the “% Inhibition” value is recorded as -17%.

`CC(=O)N(C1CCOCC1)[C@H]1CCCN(C(=O)Cc2cccnc2)C1`: the “% Inhibition” value was -13%.

Consider `CCCCn1c(N)c(N(Cc2ccccc2OC)C(=O)c2ccoc2C)c(=O)[nH]c1=O`, for which the “% Inhibition” value was -5%.

As for `O=C(Cc1ccc(F)cc1F)N1CCc2[nH]nc(C(=O)N3CCN(c4ccccc4)CC3)c2C1`, the “% Inhibition” value is listed as 3%.

Regarding `CN(C)CCCNc1nc(N2CCCC2)c2c(c1C#N)CCN(C)C2`, the “% Inhibition” value amounted to 1%.

For `C[C@H](Nc1nc(N2CCCCC2)nc2ccccc12)c1ccccc1`, the “% Inhibition” value was -1%.

Consider `CC(C)(C)OC(=O)Cn1cc(CO)nn1`, for which the “% Inhibition” value is on record as 1%.

Take `COc1cccc(-c2noc3nc(C)cc(C(=O)NCCCn4ccc(C)n4)c23)c1`: the “% Inhibition” value turned out to be 5%.

`c1coc([C@H](CNC2CCCC2)N2CCCC2)c1`: the “% Inhibition” value was -4%.

For the compound `CCCOc1ccc(Cl)c(CN2OCC(C)(C)C2=O)c1`, the “% Inhibition” value was -7%.

`COc1cc2c(cc1Cl)-n1cccc1C1(CCNCC1)N2`: the “% Inhibition” value is recorded as -8%.

On to `C[C@H]1CCCN(C(=O)CNC(=O)Cc2ccccc2)CC1`, for which the “% Inhibition” value is -9%.

Turning to `O=C1NC(=O)[C@@H]2CN(C(=O)[C@@H]3CCO[C@H]3c3ccc(Cl)c(F)c3)C[C@H]12`, the “% Inhibition” value is listed as 2%.

For orientation: % Inhibition means the change of the read-out against control, counted positive when it falls.
